We go through 24 molecules from publication PMC4336329 (PLoS ONE, 2015).

The structures appear in SMILES notation. Among all 310,000 compounds or so, about 14,000 (4.5%) showed an effect of 50% or more. Effects have a minus sign here. The list shows a part of the results.
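Further: peak tail current of the secondary pulse compared with the same well before compound.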

In this test the target is human ether-à-go-go-related gene (hERG) potassium channel (human, UniProt Q12809). As to the kind of experiment: primary screen, population patch clamp on CHO cells stably expressing hERG.
Chain of human ether-à-go-go-related gene (hERG) potassium channel (Q12809 whole entry, looked up): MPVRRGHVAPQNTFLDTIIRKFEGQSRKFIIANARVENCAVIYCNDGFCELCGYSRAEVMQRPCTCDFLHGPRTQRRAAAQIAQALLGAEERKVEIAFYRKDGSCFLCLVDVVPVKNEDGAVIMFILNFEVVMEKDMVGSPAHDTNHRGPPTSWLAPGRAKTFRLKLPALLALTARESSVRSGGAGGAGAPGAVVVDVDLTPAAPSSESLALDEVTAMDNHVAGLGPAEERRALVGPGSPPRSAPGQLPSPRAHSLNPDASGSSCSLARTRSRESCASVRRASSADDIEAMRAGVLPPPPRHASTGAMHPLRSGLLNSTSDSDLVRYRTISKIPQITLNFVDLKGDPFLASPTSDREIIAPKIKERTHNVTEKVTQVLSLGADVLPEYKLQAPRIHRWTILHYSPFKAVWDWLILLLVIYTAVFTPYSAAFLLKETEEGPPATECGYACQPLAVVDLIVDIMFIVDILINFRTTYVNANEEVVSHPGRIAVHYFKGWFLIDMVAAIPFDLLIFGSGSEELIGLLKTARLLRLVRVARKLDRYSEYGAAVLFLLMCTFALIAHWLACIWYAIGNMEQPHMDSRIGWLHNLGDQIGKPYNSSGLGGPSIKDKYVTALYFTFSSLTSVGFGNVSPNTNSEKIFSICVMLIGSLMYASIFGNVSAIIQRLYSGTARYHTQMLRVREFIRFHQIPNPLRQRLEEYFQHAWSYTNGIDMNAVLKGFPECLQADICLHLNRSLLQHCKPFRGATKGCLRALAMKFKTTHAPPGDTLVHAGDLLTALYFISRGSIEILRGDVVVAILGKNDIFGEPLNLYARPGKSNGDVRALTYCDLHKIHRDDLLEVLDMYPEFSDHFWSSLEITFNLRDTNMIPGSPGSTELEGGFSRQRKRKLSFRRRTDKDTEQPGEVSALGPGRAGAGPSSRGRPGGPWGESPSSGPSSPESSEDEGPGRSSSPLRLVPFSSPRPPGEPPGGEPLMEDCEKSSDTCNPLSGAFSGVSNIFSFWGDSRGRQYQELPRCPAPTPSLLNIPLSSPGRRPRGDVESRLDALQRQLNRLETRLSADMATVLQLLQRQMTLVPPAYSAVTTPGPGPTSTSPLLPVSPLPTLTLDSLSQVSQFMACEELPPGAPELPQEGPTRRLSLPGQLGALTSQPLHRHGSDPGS
In the case of `Cn1c(SCC(=O)NCCc2ccccc2)nnc1-c1ccncc1`, the “hERG current change (%, negative = inhibition) at 10uM” value is reported as 7.6%.
For `Cc1nc(NC(=O)c2ccccc2)sc1-c1csc(N)n1` the value was -5.17%.
`FC(F)(F)c1cccc(NC(=S)NC(c2ccccc2)c2ccccc2)c1`: the “hERG current change (%, negative = inhibition) at 10uM” value was found to be 4.53%.
For `Cn1ccnc1SCC(=O)Nc1cc(F)ccc1F` the value was 11.3%; for `CC1=CC(=C(C#N)c2nc3ccccc3s2)C=C(C)N1c1ccc(F)cc1`, 3.76%.
For `CCOc1nc(Nc2ccccc2F)nc(OCC)n1` the value was -9.55%; for `Cc1onc(-c2ccccc2)c1C(=O)NC(=S)Nc1sc2c(c1C#N)CCCC2`, 26.3%.
For `CCC(=O)Nc1ccc(C(=O)CN2C(=O)NC3(CCCCCC3)C2=O)cc1` the value was 4.45%; for `COc1ccc(C(=O)CC(=O)C(=O)Nc2cc(Cl)c(OC)cc2OC)cc1`, 3.85%; for `Cc1cccc(N2CCN(S(=O)(=O)c3c(C)nc4scc(C)n4c3=O)CC2C)c1` (stereo not drawn), -37%.
Take `C=CCn1c(C)cc(C(=O)COC(=O)C2CC(=O)N(Cc3ccccc3)C2)c1C` (stereo not drawn): the “hERG current change (%, negative = inhibition) at 10uM” value is -18.8%.
As for `CC(=O)NC(CCCNC(=S)NC1CCCCC1)C(=O)O` (stereo not drawn), the figure is 29.1%; as for `Cn1c(=O)c(C(=O)CN2CCN(Cc3ccc4c(c3)OCO4)CC2)c(N)n(Cc2ccccc2)c1=O`, -66.8%.
As for `Nc1cc(OC(=O)c2cccs2)nn1S(=O)(=O)c1ccccc1`, the figure is 24.2%; as for `CCOC(=O)N1CCN(C(=O)CCNS(=O)(=O)c2ccc(C)c(C)c2)CC1`, -4.15%; as for `O=C(NCc1ccccc1)C(Cc1ccccc1)N1C(=O)C2C3CCC(C3)C2C1=O` (stereo not drawn), -6.78%.
For `Br.Cc1cc(C)cc(Nc2nc(-c3ccc(S(=O)(=O)N4CCCC4)cc3)cs2)c1` the value was 19.5%; for `CSCCCN1CCCC(CO)(Cc2ccc(F)cc2)C1` (stereo not drawn), -30.1%; for `O=C(COC(=O)/C=C/c1ccc(F)cc1)NCc1cccs1`, 8.26%.
Consider `Cc1c(C(=O)Nn2cnnc2)oc2ccccc12`, for which the “hERG current change (%, negative = inhibition) at 10uM” value is listed as -4.79%.
For `CCN(CC)CCNC(=O)CCn1c(=S)[nH]c2cc3c(cc2c1=O)OCO3` the value was -0.98%; for `CC(C)Cc1cc(C(=O)NCCCN2CCOCC2)no1`, -6.67%.
In the case of `Cc1ccc(C(=O)OCC(=O)Nc2cc(S(=O)(=O)N3CCOCC3)ccc2C)cc1`, the “hERG current change (%, negative = inhibition) at 10uM” value is reported as -20.1%.
With `CCn1cc(C(=O)NCCCN(C)c2ccccc2)c(=O)c2cc(S(=O)(=O)N(C)C)ccc21`, the “hERG current change (%, negative = inhibition) at 10uM” value was -19.5%.
